{"source": "paper PMC5836133", "note": "Some of the results follow. At the low end of the ranking the order means little."}
{"test_system": "T1, GST-NbGlk1(82-244)", "T1 sequence": "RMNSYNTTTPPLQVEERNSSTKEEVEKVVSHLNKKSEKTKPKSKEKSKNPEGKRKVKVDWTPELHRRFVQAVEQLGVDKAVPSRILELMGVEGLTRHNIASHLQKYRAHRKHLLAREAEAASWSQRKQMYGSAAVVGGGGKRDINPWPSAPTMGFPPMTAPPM", "experiment": "protein-binding microarray;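 note: rank-based score ranging −0.5 to +0.5 with E above 0.45 taken as significant binding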", "settings": "NbGlk1 is a Golden2-like transcription factor of Nicotiana benthamiana; high values mean tight binding; most listed sequences are background and not binding sites; double strand, one strand shown", "units": {"binding signal": "E-score"}}
{"sequence": "ACGTAAAA", "binding signal": 0.102}
{"sequence": "AAGTACAT", "binding signal": 0.0438}
{"sequence": "CAAAAGAG", "binding signal": -0.0501}
{"sequence": "AAGGTTCG", "binding signal": 0.00773}
{"sequence": "AGAGGATC", "binding signal": 0.373}
{"sequence": "AAGTCCGT", "binding signal": -0.126}
{"sequence": "ACTCTATG", "binding signal": -0.194}
{"sequence": "ACAGAACT", "binding signal": 0.0162}
{"sequence": "ATGCTACC", "binding signal": -0.142}
{"sequence": "ACCATCGA", "binding signal": -0.0893}
{"sequence": "ATAAAATG", "binding signal": 0.00793}
{"sequence": "AGGACCCC", "binding signal": -0.349}
{"sequence": "AAGTCCGG", "binding signal": -0.217}
{"sequence": "ATAATATA", "binding signal": 0.233}
{"sequence": "ACAAGGGG", "binding signal": 0.0357}
{"sequence": "CAGACTCG", "binding signal": -0.303}
{"sequence": "ATCAAGGC", "binding signal": 0.049}
{"sequence": "CACGGTGC", "binding signal": -0.264}
{"sequence": "ACTTGTAA", "binding signal": 0.123}
{"sequence": "ACTAAATG", "binding signal": 0.0206}
{"sequence": "ATTTACCA", "binding signal": 0.13}
{"sequence": "AACACTTC", "binding signal": -0.142}
{"sequence": "ATTGCTTC", "binding signal": 0.16}
{"sequence": "AACACCAA", "binding signal": -0.15}
{"sequence": "ACTTAAGT", "binding signal": -0.11}
{"sequence": "AGTCACTA", "binding signal": -0.151}
{"sequence": "ACGGCGTC", "binding signal": -0.251}
{"sequence": "ACACTTGG", "binding signal": -0.0418}
{"sequence": "AAATCGAG", "binding signal": 0.288}
{"sequence": "ATACGAAG", "binding signal": 0.108}
{"sequence": "AACTCGTA", "binding signal": -0.0377}
{"sequence": "AACCCATC", "binding signal": -0.206}
{"sequence": "AACTGGTA", "binding signal": -0.0571}
{"sequence": "AGTCTTAG", "binding signal": -0.0359}
{"sequence": "CAAATGTC", "binding signal": 0.0135}
{"sequence": "AGGTGAAA", "binding signal": -0.0271}
{"sequence": "AGACCAGG", "binding signal": -0.242}
{"sequence": "AACTTGCC", "binding signal": -0.0482}
{"sequence": "AGTCGTCA", "binding signal": -0.149}
{"sequence": "AACTTCTT", "binding signal": 0.0105}
{"sequence": "CACGTATC", "binding signal": 0.216}
{"sequence": "ACATGAAT", "binding signal": 0.0735}
{"sequence": "ACGTTAAC", "binding signal": -0.06}
{"sequence": "CACCTGAG", "binding signal": -0.105}
{"sequence": "ATGTCGAA", "binding signal": 0.0371}
{"sequence": "ACATCACG", "binding signal": -0.0114}
{"sequence": "ACAAATAG", "binding signal": 0.0893}
{"sequence": "AATGGCGA", "binding signal": -0.0373}
{"sequence": "AACCATGG", "binding signal": -0.259}
{"sequence": "AATGGGCG", "binding signal": -0.228}
{"sequence": "AGACGATG", "binding signal": 0.0227}
{"sequence": "AAGGTGGA", "binding signal": -0.0826}
{"sequence": "ATAGGCAT", "binding signal": -0.185}
{"sequence": "ACACAATC", "binding signal": 0.39}
{"sequence": "ACGAGCTC", "binding signal": -0.187}
{"sequence": "AGCCGAAT", "binding signal": 0.0689}
{"sequence": "AAATACGA", "binding signal": 0.155}
{"sequence": "ATTGCGCC", "binding signal": 0.237}
{"sequence": "AAATTAAC", "binding signal": 0.118}
{"sequence": "ATCTTAAG", "binding signal": 0.211}
{"sequence": "AGCATATG", "binding signal": 0.0411}
{"sequence": "AATGCGCT", "binding signal": -0.0999}
{"sequence": "AGGCATAA", "binding signal": -0.12}
{"sequence": "AAAGGGCC", "binding signal": -0.363}
{"sequence": "AGGATCAT", "binding signal": 0.104}
{"sequence": "AATACTAC", "binding signal": 0.0303}
{"sequence": "CAACAATC", "binding signal": 0.134}
{"sequence": "AACAAATC", "binding signal": 0.302}
{"sequence": "AACGGCTA", "binding signal": -0.0699}
{"sequence": "AAACCAGC", "binding signal": 0.0844}
{"sequence": "ACCCTCAA", "binding signal": -0.0779}
{"sequence": "AAGTTATG", "binding signal": 0.0676}
{"sequence": "AGTGACTG", "binding signal": -0.209}
{"sequence": "ATGCGCAG", "binding signal": -0.11}
{"sequence": "ACGCGGAC", "binding signal": -0.267}
{"sequence": "AACACGCC", "binding signal": -0.204}
{"sequence": "AGCCCGCT", "binding signal": -0.343}
{"sequence": "CAATGGAG", "binding signal": -0.0637}
{"sequence": "AGACGTAC", "binding signal": -0.0843}
{"sequence": "AGTCCACA", "binding signal": -0.312}
{"sequence": "ATAACAAG", "binding signal": 0.0218}
{"sequence": "ACCCGCCA", "binding signal": -0.215}
{"sequence": "AGTTTCCA", "binding signal": 0.0549}
{"sequence": "CAGCTAAA", "binding signal": -0.0802}
{"sequence": "ACGATCAA", "binding signal": 0.0272}
{"sequence": "ACAATGGG", "binding signal": -0.0679}
{"sequence": "AGCAGCGC", "binding signal": -0.119}
{"sequence": "ACTAGGAT", "binding signal": 0.198}
{"sequence": "AGGGGAAA", "binding signal": -0.0311}
{"sequence": "AACAGTCG", "binding signal": -0.0291}
{"sequence": "AAAATCCT", "binding signal": 0.433}
{"sequence": "CAGCAAAG", "binding signal": -0.0202}
{"sequence": "ACCCTAGA", "binding signal": 0.0318}
{"sequence": "AACGCGCA", "binding signal": 0.0258}
{"sequence": "ACGGCCGG", "binding signal": -0.0463}
{"sequence": "ACAGACGG", "binding signal": -0.0525}
{"sequence": "CACAATCC", "binding signal": 0.366}
{"sequence": "ACAATTGT", "binding signal": -0.132}
{"sequence": "ACCGAGTG", "binding signal": -0.162}
{"sequence": "AGGAGTCA", "binding signal": -0.217}
{"sequence": "AGGGGATA", "binding signal": 0.15}
{"sequence": "ATTTCATC", "binding signal": 0.269}
{"sequence": "AGCCCAGA", "binding signal": -0.184}
{"sequence": "ATAACCCC", "binding signal": -0.175}
{"sequence": "AAGGCGGC", "binding signal": -0.155}
{"sequence": "AACTGGCA", "binding signal": -0.106}
{"sequence": "ACGGACGG", "binding signal": -0.112}
{"sequence": "CAATCTTA", "binding signal": 0.304}
{"sequence": "AAGAGTAA", "binding signal": 0.0593}
{"sequence": "ATTTACTC", "binding signal": 0.102}
{"sequence": "AGCTCCCT", "binding signal": -0.203}
{"sequence": "AGGCGCTA", "binding signal": -0.204}
{"sequence": "ACCGCAAG", "binding signal": -0.176}
{"sequence": "AACATACT", "binding signal": -0.0781}
{"sequence": "CAGCAGCA", "binding signal": -0.0496}
{"sequence": "AAAATCAA", "binding signal": 0.334}
{"sequence": "ATCAGCCA", "binding signal": 0.139}
{"sequence": "CACTCCCA", "binding signal": -0.0737}
{"sequence": "CACTTGCC", "binding signal": -0.174}
{"sequence": "ACGCAAGT", "binding signal": -0.15}
{"sequence": "ATCGCTTA", "binding signal": 0.231}
{"sequence": "ACAAAAGC", "binding signal": 0.0163}
{"sequence": "CAGCCCGC", "binding signal": -0.144}
{"sequence": "ATCTGGAG", "binding signal": 0.225}
{"sequence": "AGGATCTC", "binding signal": 0.402}
{"sequence": "ACGCTCTA", "binding signal": -0.0738}
{"sequence": "ATTCCCCA", "binding signal": 0.256}
{"sequence": "ACGGCGTA", "binding signal": -0.0015}
{"sequence": "AGGATTTC", "binding signal": 0.469}
{"sequence": "ACCTTGGA", "binding signal": -0.132}
{"sequence": "ACTGTTTG", "binding signal": -0.0519}
{"sequence": "ATCTGCAC", "binding signal": 0.375}
{"sequence": "AGGTTGCG", "binding signal": -0.113}
{"sequence": "ACACAGAG", "binding signal": -0.00403}
{"sequence": "ACATGTAT", "binding signal": -0.00156}
{"sequence": "ACCAGCCC", "binding signal": -0.178}
{"sequence": "AAGCAGTG", "binding signal": -0.276}
{"sequence": "CAACAGGC", "binding signal": -0.242}
{"sequence": "ACTCTACC", "binding signal": -0.0793}
{"sequence": "AAGCGAAC", "binding signal": -0.203}
{"sequence": "ATACTCTG", "binding signal": 0.0845}
{"sequence": "AGAGAAGC", "binding signal": -0.0895}
{"sequence": "AGAATTCG", "binding signal": 0.221}
{"sequence": "ATGTTGTA", "binding signal": 0.103}
{"sequence": "ACACCCGG", "binding signal": -0.258}
{"sequence": "CAAACAGA", "binding signal": 0.0141}
{"sequence": "ATTGAGGA", "binding signal": 0.0724}
{"sequence": "AACGGGCC", "binding signal": -0.342}
{"sequence": "ATTTCTGC", "binding signal": 0.219}
{"sequence": "ACAAATAC", "binding signal": 0.118}
{"sequence": "AATTCACA", "binding signal": 0.0928}
{"sequence": "ACATGCTG", "binding signal": -0.0838}
{"sequence": "ACTGACGC", "binding signal": -0.153}
{"sequence": "ACATGGCG", "binding signal": -0.0217}
{"sequence": "ACGTTGTG", "binding signal": -0.0555}
{"sequence": "ACCTCAGA", "binding signal": -0.0911}
{"sequence": "ATCGCCCG", "binding signal": 0.188}
{"sequence": "ATGCGACG", "binding signal": -0.035}
{"sequence": "AGAGTACC", "binding signal": -0.251}
{"sequence": "CAATAAGC", "binding signal": "-9.89e-05"}
{"sequence": "AGGACGCA", "binding signal": -0.00541}
{"sequence": "ATGCGTCG", "binding signal": 0.0331}
{"sequence": "AGGCTGTC", "binding signal": -0.22}
{"sequence": "AGCGAACC", "binding signal": -0.248}
{"sequence": "AATTCAGT", "binding signal": 0.125}
{"sequence": "AGGTGCCA", "binding signal": -0.235}
{"sequence": "AAGTTGAT", "binding signal": 0.0445}
{"sequence": "CAAATTAG", "binding signal": 0.0381}
{"sequence": "ATTCAGAG", "binding signal": 0.0587}
{"sequence": "ACCTATGC", "binding signal": -0.21}
{"sequence": "AGTTGCTA", "binding signal": -0.141}
{"sequence": "AGGGTCTG", "binding signal": -0.203}
